From PubChem BioAssay AID1745853 (National Center for Advancing Translational Sciences (NCATS), 2022)
The other results are listed elsewhere or left out. Shown are side measurements of this screen, not its main read-out; they come without a call.

Tests used:
Experiment in all cases: Primary Screen for Target Class Profiling of Small Molecule Inhibitors of Methyltransferases
[1] = biological target: Glycine N-methyltransferase (Homo sapiens) (UniProt Q14749); conditions: purified enzyme, MTase-Glo SAH luminescence; measured here: GNMT inhibition; at 40 µM; stronger effect = lower value
Method in brief: (§1)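 Each enzyme was assayed with SAM and its substrate. SAH formation detected by MTase-Glo luminescence; single-point 40 uM screen[…].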

[2] = biological target: Guanidinoacetate N-methyltransferase (Homo sapiens) (UniProt Q14353); conditions: purified enzyme, MTase-Glo SAH luminescence; measured here: GAMT inhibition; at 40 µM; stronger effect = lower value
Method in brief: as §1

[3] = biological target: Histamine N-methyltransferase (Homo sapiens) (UniProt P50135); conditions: purified enzyme, MTase-Glo SAH luminescence; measured here: HNMT inhibition; at 40 µM; stronger effect = lower value
Method in brief: as §1

[4] = biological target: Nicotinamide N-methyltransferase (Homo sapiens) (UniProt P40261); conditions: purified enzyme, MTase-Glo SAH luminescence; measured here: NNMT inhibition; at 40 µM; stronger effect = lower value
Method in brief: as §1

[5] = biological target: Phenylethanolamine N-methyltransferase (Homo sapiens) (UniProt P11086); conditions: purified enzyme, MTase-Glo SAH luminescence; measured here: PNMT inhibition; at 40 µM; stronger effect = lower value
Method in brief: as §1
On the % scale 0 is the no-effect control and ±100 the full control effect.

SMILES | activity change, negative = inhibition [1] [%] | activity change, negative = inhibition [2] [%] | activity change, negative = inhibition [3] [%] | activity change, negative = inhibition [4] [%] | activity change, negative = inhibition [5] [%]
CCCS(=O)(=O)N1CCc2nnc(C3CC3)n2CC1 | -2.49 | 0.658 | 1.56 | -1.45 | -0.083
CCC1c2ccc(C)n2CCN1C(=O)Nc1ccccc1C(F)(F)F (stereo not drawn) | -4.22 | 0 | 2.07 | -8.78 | -0.258
COC(=O)c1ncn2c1C(=O)N(c1ccc(C(C)C)cc1)C(C)(C(=O)NCCCOC(C)C)C2 (stereo not drawn) | -1.14 | 2.36 | 14.2 | 8.91 | 10.1
CCc1ccc(NC(=O)Cn2nc3n(CC(C)C)c(=O)c4ccccc4n3c2=O)cc1 | 0.15 | 2.17 | 3.93 | -7.44 | 1.12
Cc1ccc(CNC(=O)Cn2ccc3cc(S(=O)(=O)N4CCC(C)CC4)ccc32)o1 | 3.55 | 0 | 5.38 | -1.72 | 2.11
CC1CCN(S(=O)(=O)c2ccc3c(ccn3CC(=O)NCc3ccc(F)cc3)c2)CC1 | 2.79 | 0.972 | 5.2 | 1.36 | 2.99
COc1cccc(CNc2nc3c(-c4cccc(Br)c4)nnn3c3ccccc23)c1 | -9.34 | 1.82 | -6.08 | -8.9 | -6.51
C=C1CCCC2(C)CC3(OC)OC(=O)C(C)=C3CC12 (stereo not drawn) | -1.42 | -3.85 | 4.28 | -15.9 | -9.69
COCCN1CC2CN(C(=O)CCCc3ccccc3)CC(C1)O2 | -5.32 | -7.01 | -2.99 | -12.9 | -7.94
COc1ccc2c(c1)c(NC(C)=O)c1n2CC(C)(C(=O)NC2CCCCC2)N(CCN(C)C)C1=O (stereo not drawn) | 1.23 | 0 | 3.81 | 9.86 | 0.098
COc1ccc(C(=O)N2CCC(c3noc(-c4ccncc4)n3)C2)cn1 (stereo not drawn) | -5.9 | -11.8 | -4.76 | -16.9 | -21.8
CC1(C(=O)NC2CCCCCC2)Cn2c(cc3occc32)C(=O)N1CC1CCCO1 (stereo not drawn) | -1.45 | 3.31 | -0.493 | -0.496 | -2.14
CC(=O)N1CCCC(c2nn(-c3cccc(Cl)c3)c(=O)[nH]2)C1 (stereo not drawn) | -4.6 | -3.62 | -1.3 | -11.1 | -22.6
CC1(C(=O)NC2CCCCC2)Cn2nc(-c3cccs3)cc2C(=O)N1c1cccc(Cl)c1 (stereo not drawn) | -15.8 | 0.641 | -5.15 | -5.27 | -8.05
CC(=O)N1CCC(C(=O)N[C@H]2CCN3C(=O)N(c4ccc(OC(F)(F)F)cc4)C(=O)[C@@H]3C2)CC1 | 1.31 | 0.684 | 2.74 | -2.08 | 1.51
COc1ccc(C)cc1NS(=O)(=O)c1ccc2[nH]c(=O)[nH]c2c1 | -5.74 | 5.48 | 4.01 | 7.46 | -8.18
COc1ccc(OC)c2c1cc1n2CC(C)(C(=O)NC2CCCC(C)C2C)N(Cc2ccco2)C1=O (stereo not drawn) | -1.61 | 4.44 | -3.69 | -3.31 | -2.52
CC(C)OCCCNC(=O)C1CCCN(S(=O)(=O)c2cn(C)cn2)CCC(=O)NCC1 (stereo not drawn) | -0.856 | -1.67 | 0.772 | -4.11 | 0.064
O=c1c2ccccc2n2c(=O)n(Cc3ccc(F)cc3)nc2n1Cc1ccc(F)cc1 | 5.32 | 1.64 | 6.33 | 5.13 | 3.94
CC(C)c1noc([C@@H]2C[C@@H](O)CN2Cc2cc3ccccc3o2)n1 | -5.2 | -10.4 | -1.94 | -6.28 | -4.58
O=C(NCc1ccccc1)C1CCCN1c1nccc(Nc2ccccc2F)n1 (stereo not drawn) | -4.3 | -3.58 | -2.26 | -11.9 | 0.62

SMILES | activity change, negative = inhibition [1] [%] | activity change, negative = inhibition [2] [%] | activity change, negative = inhibition [3] [%] | activity change, negative = inhibition [4] [%] | activity change, negative = inhibition [5] [%]
O=C(O)C1=CCNCC1 | 6.88 | 7.43 | 11.9 | -8.81 | -3.05
Cc1n[nH]c(C)c1CNC(=O)C12CCCC=C1N(Cc1ccccc1)C(=O)CC2 (stereo not drawn) | -11.4 | -14.9 | -5.87 | -13.3 | -7.08
O=C(NCCn1ccnc1-c1cc2n(n1)CCCNC2)c1ccncc1 | -0.399 | 1.58 | 1.16 | -0.673 | -0.173
Cc1ccccc1CN1C(=O)c2cc3ccccc3n2CC1(C)C(=O)NC1CCCCC1 (stereo not drawn) | 0.184 | 4.08 | 6.94 | 4.92 | 0.993
COCCn1c(C)cnc1CC1CCN(C(=O)c2c[nH]c3ccccc23)CC1 | -4.17 | -2.7 | -10.7 | -6.53 | 0.987
Cc1ccc(Cn2c(=O)c3ccccc3n3c(=O)n(Cc4ccccc4Cl)nc23)cc1 | 5.58 | 2.8 | 5.6 | 6.82 | 3.88
Cc1nn2c(SCC(=O)Nc3ccc(C(C)C)cc3)nnc2[nH]c1=O | -0.533 | 0 | -2.5 | -5.46 | -3.62
COc1ccc(CNC(=O)CCc2nnc3n(Cc4ccccc4)c(=O)c4ccccc4n23)cc1 | -8.86 | 0.125 | 10.4 | 12.5 | 3.56
O=C(/C=C/c1ccc(O)c(O)c1)OC[C@H]1O[C@@H](OC2CCCCC2O)[C@H](O)[C@@H](O)[C@@H]1O (stereo partly drawn) | 0 | -0.183 | -0.367 | -10.8 | 2.33
CC1(C)CCC2(C(=O)OC3OC(CO)C(O)C(O)C3O)CCC3(C)C(=CCC4C5(C)CCC(OC6OC(C(=O)O)C(OC7OC(CO)C(O)C(O)C7O)C(OC7OC(CO)C(O)C(O)C7O)C6O)C(C)(C)C5CCC43C)C2C1 (stereo not drawn) | 0.458 | 3.56 | 8.16 | -9.11 | 0.701
CCOc1cc(=O)n2c(c1C(=O)Nc1cccc(C)c1)CCCC2 | -2.21 | -1.05 | -0.096 | -6.96 | -0.447
CCCn1c(=O)c2ccc(C(=O)NC(C)C)cc2n2c(=O)n(Cc3cccc(OC)c3)nc12 | -1.49 | 5.89 | 5.97 | -7.78 | -0.629
CNC(=O)[C@@H](Cc1ccccc1)N1CCC[C@H]1C(=O)NCC1CC1 | -0.821 | 0.462 | -0.75 | 1.42 | 2
C=CC(=O)Nc1cccc(Nc2nc(Nc3ccc(NC4CN(CCF)C4)cc3OC)ncc2C(F)(F)F)c1 | -14 | -1.97 | -13.8 | -24.5 | -1.1
COc1cc(/C=C\c2ccc(O)cc2)cc(OC)c1 |  | 5.52 |  | -2.25 | 4.4
COCCNC(=O)c1cc2n(n1)CC(C)(C(=O)NC1CCCCC1)N(C)C2=O (stereo not drawn) | 10.6 | 0.064 | 8.43 | 12.7 | 5.2
CCCc1nc(CN(CC)C(=O)c2ccc(NC(=O)C3CCC3)cc2)no1 | -3.74 | -3.16 | -1.17 | -7.32 | -2.96
NCC(=O)N[C@H]1CN(c2nccc(C(F)(F)F)n2)C[C@@H]1C1CC1 | -3.72 | -4.47 | -0.538 | -11.6 | -19.2
CCC(C)NC(=O)c1ccc2c(=O)n(C)c3nn(Cc4cccc(Cl)c4)c(=O)n3c2c1 (stereo not drawn) | 1.83 | 2.75 | 7.61 | -0.539 | 4.99
NCC(O)c1ccc(O)c(O)c1 (stereo not drawn) | -63.6 | 1.5 | -6.22 | -8.94 | 2.68
COC(=O)c1cc2n(n1)CC(C)(C(=O)NC1CCC(C)CC1)N(Cc1ccc(OC(C)C)cc1)C2=O (stereo not drawn) | -2.86 | 1.34 | 1.78 | -12 | -2.3

SMILES | activity change, negative = inhibition [1] [%] | activity change, negative = inhibition [2] [%] | activity change, negative = inhibition [3] [%] | activity change, negative = inhibition [4] [%] | activity change, negative = inhibition [5] [%]
COc1ccc2c(c1)C(C(=O)Nc1ccc(C)c([S+](=O)([O-])N3CCOCC3)c1)=CC(C)(C)CO2 | -0.951 | 1.52 | 0.647 | -5.39 | 13.6
CN(CC(=O)NCc1ccc(F)cc1)S(=O)(=O)c1ccc2[nH]c3c(c2c1)CCCC3 | 3.32 | 1.61 | 0.602 | 4.15 | 2.75
Cc1cnn(C(C)c2nc(-c3ccc(C)nn3)no2)c1 (stereo not drawn) | -1.94 | -2.96 | 0.642 | -4.95 | -1.13
O=c1ccc2c(OCCCCc3ccccc3)c3ccoc3cc2o1 | -13.7 | 7.25 | -2.23 | -4.12 | 7.23
COc1ccc(CNc2nc3c(-c4cccc(F)c4)nnn3c3ccccc23)cc1 | 0.353 | -0.624 | -2.12 | -15.9 | -7.78
COC(=O)c1cccc(NC(=O)N2Cc3c(sc4c3CCCC4)-n3cccc3C2c2cccc(F)c2)c1 (stereo not drawn) | -2.08 | 0 | 4.74 | -0.921 | 4.12
CCn1cc(C(=O)O)c(=O)c2cc(F)c(N3CCNC(C)C3)c(F)c21 (stereo not drawn) | 4.17 | 13.7 | -2.15 | 1.56 | 11.3
CC(=O)OC(C)(C)/C=C/C(=O)C(C)(O)C1C(O)CC2(C)C3CC=C(C(C)(C)C(=O)O)C(CC(=O)O)C3(C)C(=O)CC12C (stereo not drawn) | 0 | -0.043 | 4.38 | -10.6 | 6.53
Nc1nc2c(c(N3CC[C@@H](N)C3)n1)CCCc1ccccc1-2 | 1.03 | 5.04 | -17.3 | -18.3 | 3.26
CC(=O)N1CCN(CC[C@H]2CN(C(=O)c3ccc(N(C)C)cc3)CC[C@H]2CC(=O)O)CC1 | -6.62 | -6.83 | -3.34 | -5.71 | -4.26
CS(=O)(=O)Nc1ccc([N+](=O)[O-])cc1Oc1ccccc1 | -11.7 | 4.95 | -1.18 | -7.74 | 7.73
CC1=C[C@@H](CN(CC2CC2)CC2CC2)[C@H](C(C)C)C[C@H]1Cc1nc2ccncc2[nH]1 | -2.22 | -0.387 | -83.3 | -25.9 | 3.57
CCCCN1C(=O)c2ccc(-c3ccccc3)n2CC1(C)C(=O)NC1CCCCC1 (stereo not drawn) | 3.86 | 0 | 3.76 | 0.402 | 3.35
CCc1ccc(N2C(=O)c3cc(-c4ccc(OC)cc4)nn3CC2(C)C(=O)NC2CCCCC2)cc1 (stereo not drawn) | -3.56 | 4.28 | -3.47 | -3.62 | -7.13
CCCn1c(=O)c2ccc(Cl)cc2n2c(=O)n(CC(=O)Nc3ccc(C)cc3C)nc12 | -0.293 | 3.6 | 1.87 | 0.739 | -0.765
N#Cc1ccc(CN2CCCC3(CC(c4cccnc4)=NO3)C2)cc1 (stereo not drawn) | -4.27 | -5.17 | -3.63 | -3.9 | -3.1
CC[C@]12CCCN3CCc4c(n(c5ccccc45)C(=O)C1)[C@@H]32 | 2.83 | 1.25 | 8.41 | -23.9 | -4.68
Cc1nn(C)cc1CN1CCC(O)(c2ccccc2)[C@H](N2CCCC2)C1 (stereo partly drawn) | -13.9 | -6.49 | -12.6 | -13.1 | -4.92
COc1ccc(N2C(=O)c3cc4ccccc4n3CC2(C)C(=O)NC2CCCC2)cc1OC (stereo not drawn) | -3.28 | 3.51 | -4.52 | 1.5 | -2.86
